Reference: the supplement of paper PMC4967469

Tests used:
Experiment in all cases: Viability of human cancer cell lines after 72 h of drug (GDSC screen)
AZ628 = compound: Cc1ccc(NC(=O)c2cccc(C(C)(C)C#N)c2)cc1Nc1ccc2ncn(C)c(=O)c2c1 [AZ628]; conditions: top dose 4 µM; top dose inferred
Experimental: (§1)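 Human cancer cell lines in 384-well plates, medium with 10% serum, drug for 72 h over a 256-fold dose range (nine 2-fold or five 4-fold steps up to the top dose). Adherent lines were fixed and stained with the nucleic acid dye Syto60, suspension lines read with resazurin; signal relative to control wells, capped at 0 and 100%. One two-parameter sigmoid per drug and line, fitted in a mixed model over all curves with the slope shared within a line.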

YM201636 = compound: Nc1ccc(C(=O)Nc2cccc(-c3nc(N4CCOCC4)c4oc5ncccc5c4n3)c2)cn1 [YM201636]; conditions: top dose 5.12 µM; top dose inferred
Experimental: as §1

EX-527 = compound: NC(=O)C1CCCc2c1[nH]c1ccc(Cl)cc21 [EX-527]; conditions: top dose 20 µM
Experimental: as §1

AZD6244 = compound: Cn1cnc2c(F)c(Nc3ccc(Br)cc3Cl)c(C(=O)NOCCO)cc21 [AZD6244]; conditions: top dose 4 µM; screen: GDSC drug entry 1498; top dose inferred
Experimental: as §1

AS601245 = compound: N#CC(c1ccnc(NCCc2cccnc2)n1)c1nc2ccccc2s1 [AS601245]; conditions: top dose 8 µM; top dose inferred
Experimental: as §1

Cell Line | AUC (AZ628) | IC50 (AZ628) | AUC (YM201636) | IC50 (YM201636) | AUC (EX-527) | IC50 (EX-527) | AUC (AZD6244) | IC50 (AZD6244) | AUC (AS601245) | IC50 (AS601245)
P30-OHK (lymphoblastic leukaemia, suspension) | 0.984 | > 4 µM | 0.583 | 0.519 µM | 0.991 | > 20 µM | 0.986 | > 4 µM | 0.798 | 3.1 µM
P31-FUJ (acute myeloid leukaemia, suspension) | 0.995 | > 4 µM | 0.99 | > 5.12 µM | 0.996 | > 20 µM | 0.937 | > 4 µM | 0.979 | > 8 µM
P32-ISH (Burkitt lymphoma, suspension) | 0.98 | > 4 µM | 0.768 | 1.48 µM | 0.995 | > 20 µM | 0.995 | > 4 µM | 0.849 | 3.88 µM
PF-382 (T-cell lymphoblastic leukaemia, suspension) | 0.882 | 3.31 µM | 0.789 | 1.96 µM | 0.99 | > 20 µM | 0.99 | > 4 µM | 0.898 | 7.84 µM
PL-21 (acute myeloid leukaemia, suspension) | 0.545 | 0.338 µM | 0.753 | 1.96 µM | 0.971 | > 20 µM | 0.782 | 1.98 µM | 0.886 | > 8 µM
PSN1 (pancreas, adherent) | 0.218 | 0.0445 µM | 0.892 | 4.33 µM | 0.981 | > 20 µM | 0.52 | 0.282 µM | 0.801 | 3.2 µM
QIMR-WIL (acute myeloid leukaemia, suspension) | 0.848 | 2.85 µM | 0.781 | 2.05 µM | 0.985 | > 20 µM | 0.954 | > 4 µM | 0.848 | 5.69 µM
RC-K8 (B-cell lymphoma, suspension) | 0.972 | > 4 µM | 0.963 | > 5.12 µM | 0.991 | > 20 µM | 0.98 | > 4 µM | 0.946 | > 8 µM
RCC10RGB (kidney, adherent) | 0.959 | > 4 µM | 0.897 | > 5.12 µM | 0.962 | > 20 µM | 0.799 | > 4 µM | 0.827 | > 8 µM
REH (B-cell leukaemia, suspension) | 0.925 | > 4 µM | 0.805 | 2.45 µM | 0.984 | > 20 µM | 0.985 | > 4 µM | 0.831 | 4.81 µM
RF-48 (stomach, adherent) | 0.931 | > 4 µM | 0.761 | 2.02 µM | 0.979 | > 20 µM | 0.98 | > 4 µM | 0.874 | > 8 µM
RH-1 (rhabdomyosarcoma, adherent) | 0.987 | > 4 µM | 0.644 | 0.745 µM | 0.99 | > 20 µM | 0.984 | > 4 µM | 0.868 | 5.35 µM
RKO (large intestine, adherent) | 0.275 | 0.0608 µM | 0.894 | > 5.12 µM | 0.975 | > 20 µM | 0.865 | 3.11 µM | 0.727 | 2.09 µM
RL (B-cell lymphoma, suspension) | 0.9 | > 4 µM | 0.754 | 1.6 µM | 0.984 | > 20 µM | 0.978 | > 4 µM | 0.963 | > 8 µM
ROS-50 (B-cell leukaemia, suspension) | 0.845 | > 4 µM | 0.837 | 4.86 µM | 0.952 | > 20 µM | 0.979 | > 4 µM | 0.96 | > 8 µM
RPMI-6666 (Hodgkin lymphoma, suspension) | 0.809 | 2.62 µM | 0.82 | 3.73 µM | 0.966 | > 20 µM | 0.929 | > 4 µM | 0.744 | 2.93 µM
RPMI-8226 (myeloma, suspension) | 0.809 | 1.77 µM | 0.93 | > 5.12 µM | 0.991 | > 20 µM | 0.926 | > 4 µM | 0.957 | > 8 µM
RPMI-8402 (T-cell lymphoblastic leukaemia, suspension) | 0.963 | > 4 µM | 0.716 | 1.16 µM | 0.973 | > 20 µM | 0.978 | > 4 µM | 0.868 | 5.43 µM
RS4-11 (leukaemia, suspension) | 0.94 | > 4 µM | 0.685 | 1 µM | 0.985 | > 20 µM | 0.97 | > 4 µM | 0.808 | 3.72 µM
RXF393 (kidney, adherent) | 0.942 | > 4 µM | 0.858 | > 5.12 µM | 0.974 | > 20 µM | 0.829 | 3.96 µM | 0.807 | 6.19 µM
Raji (Burkitt lymphoma, suspension) | 0.961 | > 4 µM | 0.932 | > 5.12 µM | 0.986 | > 20 µM | 0.969 | > 4 µM | 0.979 | > 8 µM
Ramos-2G6-4C10 (Burkitt lymphoma, suspension) | 0.935 | > 4 µM | 0.91 | > 5.12 µM | 0.99 | > 20 µM | 0.97 | > 4 µM | 0.852 | 4.85 µM

Lines with a small IC50 respond at low doses; a limit (>, <) means that the fit lies beyond the doses tested. For AUC the same curve is integrated over the 256-fold range of doses and scaled to a fraction: 1 means no effect, lower means more sensitive. For some of these results: A top dose marked as inferred comes from the curve model; the source does not state it. For some of these results: Drugs with an entry number were screened twice under separate entries, and the two screens often disagree.
